# These are yes or no findings as the source states them, for the method shown. In cells and extracts the contact can be indirect. Some results given as binding are weak or reduced against the parent protein; the word gives no strength.
# The chains behind the UniProt entries cited, without tags or fusion partners. Where a name states a change or a piece, a line headed by the entry shows the natural chain unless it says otherwise. Residues count along the entry.
# UniProt P01558: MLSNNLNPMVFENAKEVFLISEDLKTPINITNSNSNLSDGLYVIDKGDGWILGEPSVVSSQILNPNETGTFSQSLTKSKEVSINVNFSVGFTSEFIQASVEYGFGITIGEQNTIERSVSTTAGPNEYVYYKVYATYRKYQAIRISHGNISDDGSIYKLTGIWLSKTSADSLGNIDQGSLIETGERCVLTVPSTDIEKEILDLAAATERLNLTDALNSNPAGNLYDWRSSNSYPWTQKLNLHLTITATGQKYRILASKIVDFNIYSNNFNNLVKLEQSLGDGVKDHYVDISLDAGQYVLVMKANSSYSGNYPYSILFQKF
# GST-CPE_(116–319) fusion protein: residues 116-319 of P01558
# CPE_(194–319): residues 194-319 of P01558
# CPE_(194–309): residues 194-309 of P01558
# UniProt A0A0G2K2P5: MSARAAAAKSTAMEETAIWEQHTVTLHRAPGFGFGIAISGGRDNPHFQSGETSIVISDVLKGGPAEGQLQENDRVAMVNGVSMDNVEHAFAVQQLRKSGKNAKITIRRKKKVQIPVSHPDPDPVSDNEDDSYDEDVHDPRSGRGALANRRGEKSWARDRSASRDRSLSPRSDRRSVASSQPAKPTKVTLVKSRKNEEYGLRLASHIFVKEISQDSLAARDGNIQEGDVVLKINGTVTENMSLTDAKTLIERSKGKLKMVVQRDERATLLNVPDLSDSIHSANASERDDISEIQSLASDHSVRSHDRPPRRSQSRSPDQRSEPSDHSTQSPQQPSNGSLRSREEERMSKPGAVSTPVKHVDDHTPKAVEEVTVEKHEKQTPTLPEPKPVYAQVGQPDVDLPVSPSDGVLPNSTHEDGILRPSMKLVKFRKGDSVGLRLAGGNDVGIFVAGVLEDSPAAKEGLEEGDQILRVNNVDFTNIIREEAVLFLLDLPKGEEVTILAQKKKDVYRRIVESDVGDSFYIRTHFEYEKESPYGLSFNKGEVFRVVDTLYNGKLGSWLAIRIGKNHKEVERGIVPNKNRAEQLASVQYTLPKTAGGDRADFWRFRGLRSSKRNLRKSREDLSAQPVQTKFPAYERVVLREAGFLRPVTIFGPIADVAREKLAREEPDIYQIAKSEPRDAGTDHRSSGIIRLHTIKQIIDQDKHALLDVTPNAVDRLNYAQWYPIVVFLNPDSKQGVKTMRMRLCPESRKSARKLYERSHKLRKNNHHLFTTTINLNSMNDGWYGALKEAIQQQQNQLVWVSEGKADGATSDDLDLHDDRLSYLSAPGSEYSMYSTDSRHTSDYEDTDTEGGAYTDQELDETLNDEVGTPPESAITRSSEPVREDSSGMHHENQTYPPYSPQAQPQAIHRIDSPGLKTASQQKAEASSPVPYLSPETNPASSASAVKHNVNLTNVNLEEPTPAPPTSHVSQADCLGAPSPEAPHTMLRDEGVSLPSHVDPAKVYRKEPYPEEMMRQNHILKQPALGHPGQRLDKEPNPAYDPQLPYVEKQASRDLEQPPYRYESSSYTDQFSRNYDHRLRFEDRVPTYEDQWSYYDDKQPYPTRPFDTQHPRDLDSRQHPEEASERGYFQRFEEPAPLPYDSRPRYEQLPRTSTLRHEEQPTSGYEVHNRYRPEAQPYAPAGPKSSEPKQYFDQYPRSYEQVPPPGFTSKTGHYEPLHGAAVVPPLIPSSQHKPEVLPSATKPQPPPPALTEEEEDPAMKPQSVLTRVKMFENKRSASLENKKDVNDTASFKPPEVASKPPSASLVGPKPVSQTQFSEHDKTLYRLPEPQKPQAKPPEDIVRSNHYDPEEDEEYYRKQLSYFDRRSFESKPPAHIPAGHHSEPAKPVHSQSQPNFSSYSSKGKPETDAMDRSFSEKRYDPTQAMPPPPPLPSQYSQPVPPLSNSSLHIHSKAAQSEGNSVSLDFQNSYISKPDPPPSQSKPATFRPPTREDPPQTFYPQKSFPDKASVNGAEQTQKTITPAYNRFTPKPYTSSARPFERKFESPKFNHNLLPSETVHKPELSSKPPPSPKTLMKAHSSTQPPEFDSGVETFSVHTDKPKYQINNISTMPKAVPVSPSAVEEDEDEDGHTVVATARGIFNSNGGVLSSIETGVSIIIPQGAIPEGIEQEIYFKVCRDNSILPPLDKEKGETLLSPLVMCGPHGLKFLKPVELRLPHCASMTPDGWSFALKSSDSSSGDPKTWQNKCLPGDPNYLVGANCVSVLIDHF
# UniProt Q9Z1L1: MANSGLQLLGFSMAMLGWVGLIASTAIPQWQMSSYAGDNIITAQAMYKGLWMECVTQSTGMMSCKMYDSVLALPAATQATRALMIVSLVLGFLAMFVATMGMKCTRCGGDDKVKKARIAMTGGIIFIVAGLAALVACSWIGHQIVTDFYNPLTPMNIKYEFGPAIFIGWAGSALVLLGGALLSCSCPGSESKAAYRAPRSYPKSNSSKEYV
# Assays:
# Assay in all cases: pull-down; only the target purified
# [1] = biological target: GST-CPE_(116–319) fusion protein (Clostridium perfringens) (UniProt P01558)
# [2] = biological target: CPE_(194–319) (Clostridium perfringens) (UniProt P01558)
# [3] = biological target: CPE_(194–309) (Clostridium perfringens) (UniProt P01558)
Molecule,binding [1],binding [2],binding [3]
ZO-1 (from UniProt A0A0G2K2P5 1-1765),no binding,–,–
Claudin-7 (from UniProt Q9Z1L1 1-211),binds,–,–
"Claudin-3 (protein, UniProt Q63400 1-219) MSMGLEITGTSLAVLGWLCTIVCCALPMWRVSAFIGSSIITAQITWEGLWMNCVVQSTGQMQCKMYDSLLALPQDLQAARALIVVSILLAAFGLLVALVGAQCTNCVQDETAKAKITIVAGVLFLLAAVLTLVPVSWSANTIIRDFYNPLVPEAQKREMGTGLYVGWAAAALQLLGGALLCCSCPPREKYAPTKILYSAPRSTGPGTGTGTAYDRKDYV",binds,binds,no binding
